# Laboratory results as given in PMC4336329 (PLoS ONE, 2015).
# The campaign covered roughly 310,000 compounds. About 14,000 (4.5%) showed an effect of 50% or more. Effects have a minus sign here. Some of the results follow.
# Target: human ether-à-go-go-related gene (hERG) potassium channel (human, UniProt Q12809)
# Experiment: primary screen, population patch clamp on CHO cells stably expressing hERG
# 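Further: peak tail current of the secondary pulse compared with the same well before compound.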
# Chain of human ether-à-go-go-related gene (hERG) potassium channel (Q12809 whole entry, looked up): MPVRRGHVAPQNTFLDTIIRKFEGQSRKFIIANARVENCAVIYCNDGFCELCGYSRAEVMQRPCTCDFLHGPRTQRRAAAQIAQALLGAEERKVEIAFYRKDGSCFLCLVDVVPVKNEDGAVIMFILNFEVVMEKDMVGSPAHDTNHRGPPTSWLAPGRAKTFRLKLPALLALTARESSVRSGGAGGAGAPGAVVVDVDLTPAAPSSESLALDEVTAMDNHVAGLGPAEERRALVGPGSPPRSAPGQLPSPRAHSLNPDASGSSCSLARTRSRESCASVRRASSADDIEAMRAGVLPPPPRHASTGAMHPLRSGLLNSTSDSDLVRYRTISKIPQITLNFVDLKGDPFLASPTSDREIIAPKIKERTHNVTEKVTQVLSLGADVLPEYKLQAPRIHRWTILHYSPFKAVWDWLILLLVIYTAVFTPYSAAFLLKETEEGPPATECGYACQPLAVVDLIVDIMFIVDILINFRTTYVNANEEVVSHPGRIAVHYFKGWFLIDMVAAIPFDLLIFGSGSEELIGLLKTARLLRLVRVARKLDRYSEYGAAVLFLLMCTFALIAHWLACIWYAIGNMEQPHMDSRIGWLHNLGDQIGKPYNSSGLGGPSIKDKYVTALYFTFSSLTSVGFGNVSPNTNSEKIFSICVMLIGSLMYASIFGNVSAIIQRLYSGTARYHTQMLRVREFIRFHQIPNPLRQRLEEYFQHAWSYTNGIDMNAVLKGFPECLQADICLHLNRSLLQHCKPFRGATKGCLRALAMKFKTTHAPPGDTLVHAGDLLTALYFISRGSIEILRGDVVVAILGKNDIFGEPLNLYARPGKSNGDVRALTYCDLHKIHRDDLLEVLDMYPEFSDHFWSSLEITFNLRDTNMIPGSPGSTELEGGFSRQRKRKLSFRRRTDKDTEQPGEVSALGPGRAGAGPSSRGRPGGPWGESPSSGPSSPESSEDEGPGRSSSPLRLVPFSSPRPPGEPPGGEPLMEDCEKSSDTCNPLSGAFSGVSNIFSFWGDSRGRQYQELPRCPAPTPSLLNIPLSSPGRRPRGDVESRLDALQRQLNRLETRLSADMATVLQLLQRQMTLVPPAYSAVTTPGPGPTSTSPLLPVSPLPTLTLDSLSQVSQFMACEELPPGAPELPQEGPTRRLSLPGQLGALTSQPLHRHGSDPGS
row,Structure (SMILES),"hERG current change (%, negative = inhibition) at 10uM [%]"
1,N#Cc1cccc(NC(=O)CNc2cccc(S(=O)(=O)N3CCCCC3)c2)c1,-32
2,CCOP(=S)(OCC)SCCSCC,4.35
3,CC(=O)C(CC(=O)N1CCCc2ccccc21)C(=O)Nc1ccc(F)cc1 (stereo not shown),-8.85
4,CC(C)(C)c1ccc(C(=O)C=[N+]=[N-])cc1,-23.7
5,O=C(Nc1ccc(CN2CCCCC2)cc1)Nc1ccccc1Cl,-59
6,O=S(=O)(c1ccc(Br)s1)N1CCNCC1,-4.05
7,CC(C)[C@H](NC(=O)c1ccco1)C(=O)OCC(=O)N1CC(=O)Nc2ccccc21,13.3
8,CC1CN(C(=O)c2ccccc2)c2ccccc2NC1=O (stereo not shown),18.5
9,O=C(COC(=O)c1ccccc1F)NNC(=O)c1ccccc1,8.17
10,CCC1Nc2ncnc(N3CCN(c4ccccc4)CC3)c2N(Cc2ccc(Cl)cc2)C1=O.O=C(O)C(F)(F)F (stereo not shown),-17.4
11,Cc1cc(C)n(-c2ccc(NC(=O)C3CCCCN3C(=O)c3cc(C)oc3C)cc2)n1 (stereo not shown),-30.1
12,Cc1cccc(N2CCN(C(=O)CCC(=O)N3CCOc4ccc(Cl)cc43)CC2C)c1 (stereo not shown),-21
13,O=C(Nc1ccccc1)c1cccc(C(=O)Nc2ccccc2)n1,24.8
14,Cc1cc(C)n(C(=O)c2ccc([N+](=O)[O-])cc2[N+](=O)[O-])n1,-10.9
15,O=C(CCc1nc(-c2ccc(Cl)cc2)no1)NCC1CCCO1 (stereo not shown),20.4
16,CCCCOCP(=O)(CCCC)COCCCC,-2.52
17,O=S(=O)(Nc1nc(SCc2ccc(Cl)cc2)n[nH]1)c1ccccc1,6.68
18,CCn1c(O)c(/C=N/N=C/c2ccc(OC)cc2)c2cc(C3=NNC(=O)CC3)ccc21,0.571
19,Cc1cc2oc(=O)cc(CN3CCc4ccccc43)c2cc1Cl,16.4
20,C=CCSc1cc(C)nc2c(-c3ccccc3)c(C)nn12,1.38
21,COc1ccc(C(=O)NC(=S)Nc2ccc(N3CCN(C(C)=O)CC3)cc2)cc1[N+](=O)[O-],-2.14
22,COc1ccc(CNc2oc(COc3ccc(Cl)cc3)nc2C#N)cc1,2.47

row,Structure (SMILES),"hERG current change (%, negative = inhibition) at 10uM [%]"
1,COc1cc(NC(=O)c2ccc(Br)o2)ccc1NC(=O)c1ccccc1Cl,-22.4
2,Cc1ccc(NC(=O)CSc2nc3ccc(Nc4nc(N5CCOCC5)nc(N5CCOCC5)n4)cc3s2)cc1,13.7
3,CCOC(=O)Cc1c(C)c2c(O)cc(O)cc2oc1=O,-18.6
4,CCCCCCn1c(O)c(C=NC2CCN(Cc3ccccc3)CC2)c(=O)[nH]c1=O,-65.7
5,CCOC(=O)C(NC(C)=O)(Nc1ccc(S(N)(=O)=O)cc1)C(F)(F)F (stereo not shown),17.6
6,CCOC(=O)N1CCN(c2nc(N(c3ccccc3)c3ccccc3)nc(-n3ccnc3)n2)CC1,7.08
7,COc1ccccc1NC(=O)CCNC(=O)Cn1ccc2ccccc2c1=O,3.55
8,Cc1ccc(N2CN(Cc3cccnc3)CNC2=S)c(C)c1,-4.84
9,CCOc1ccc(N2C(=O)S/C(=C\c3cccn3C)C2=O)cc1,8.69
10,O=[N+]([O-])c1ccc(F)cc1OCc1cccc(S(=O)(=O)N2CCOCC2)c1,-31.9
11,O=C(COC(=O)c1cccc(Cl)c1)NC1CCS(=O)(=O)C1 (stereo not shown),-8.73
12,Cc1cc(O)ccc1Nc1nc(-c2cccnc2)cs1,4.4
13,COc1ccc(-c2nnc(N)s2)cc1,7.92
14,COc1cc([N+](=O)[O-])ccc1N=Nc1c(N)[nH]n(-c2ccccc2)c1=O,20.7
15,NC1=C(c2ccccc2)C(=O)NC1=O,18.1
16,Cc1cccc(NC(=O)CSCc2cc(=O)n3nc(C4CC4)sc3n2)c1,2.26
17,CC1CCCCC1N1CN=C(Nc2nc3ccccc3s2)NC1 (stereo not shown),-4.41
18,COc1ccc(C2CC(c3ccc(Cl)cc3)n3nc(N)nc3N2)cc1 (stereo not shown),-22.3
19,CN(C)c1ccc(/C=C2\CC3C4CC=C5CC(O)CCC5(C)C4CCC3(C)C2=O)cc1 (stereo not shown),3.55
20,O=C(Cc1ccccc1)N1CCN(Cc2cccc(Cl)c2)CC1.O=C(O)C(=O)O,-1.51
21,Cc1ccsc1C(=O)OCC(=O)NCC1CCCO1 (stereo not shown),-17.3
22,COc1ccc2oc(=O)c(/C(C)=N/Nc3nc(-c4cc(C)ccc4C)cs3)cc2c1,11.5

row,Structure (SMILES),"hERG current change (%, negative = inhibition) at 10uM [%]"
1,O=C(NN1CCOCC1)c1ccccc1,-19
2,Cc1onc(-c2c(Cl)cccc2Cl)c1C(=O)NCCCN1CCOCC1,3.09
3,CCOC(=O)c1ccc(NC(=O)C(=O)NCc2ccc(/C=C(/C#N)C(=O)NCCOC)o2)cc1,-11.4
4,CCn1cc(C(=O)O)c(=O)c2cc(F)c(N3CCN(C(=S)NC(=O)c4ccc(Br)cc4)CC3)cc21,20.5
5,N/C(Cn1cncn1)=N\OC(=O)c1ccc(Cl)cc1,-2.86
6,CCC(C)c1ccccc1N1CC(C(=O)N2CCN(S(=O)(=O)c3ccc(F)cc3)CC2)CC1=O (stereo not shown),-29.3
7,O=C1c2sc3nc4ccccc4n3c2C(=O)N1c1ccccc1Cl,11.1
8,COc1ccc(S(=O)(=O)Nc2ccc3c(c2)OCO3)cc1C(=O)O,2.09
9,Cn1c(COc2ccccc2)nnc1SCc1nc2ccccc2[nH]1,-9.92
10,CC1=C(C(=O)Nc2ccccc2)C(c2ccc(C)o2)n2c(s/c(=C/c3ccccc3)c2=O)=N1 (stereo not shown),18.1
11,CCOc1ccc(NC(=O)Nc2ccc3c(c2)nnn3C)cc1,2.92
12,CC(=O)N/C(=C\c1ccccc1)C(=O)OCC(=O)Nc1cc(S(=O)(=O)N(C)C)ccc1C,3.45
13,CN(C(=O)CCN1C(=O)c2ccccc2C1=O)c1ccccc1,17.7
14,O=C(Nc1ccc(C(=O)O)cc1)/C(=C\c1ccc2c(c1)OCO2)NC(=O)c1ccccc1,22
15,CCCN(CC(=O)Nc1c(C)cccc1CC)C(=O)SCC,10
16,NC(=O)CC(NC(=O)Cc1cccc2ccccc12)c1ccc(N2CCc3ccccc3C2)c([N+](=O)[O-])c1 (stereo not shown),2.15
17,COc1ccccc1C(=O)N1CCCC(c2nc(-c3cc(OC)c(OC)c(OC)c3)no2)C1 (stereo not shown),-10.6
18,Cc1cccc(CCNC(=O)C2CCCN(c3cnccn3)C2)c1 (stereo not shown),-11.5
19,O=C1C2CC=CCC2C(=O)N1CC(=O)N(Cc1ccccc1)C1CCS(=O)(=O)C1 (stereo not shown),-15.7
20,CCOC(=O)Cn1c(=O)cnc2ccccc21,7.24
21,O=C1CNC(=S)N1Cc1cccc(Cl)c1,7.56
22,Cc1ccc(NC(=O)C(=O)NCC2OCCc3ccccc32)cc1 (stereo not shown),-0.0425

row,Structure (SMILES),"hERG current change (%, negative = inhibition) at 10uM [%]"
1,Cc1cc(C=O)c(C)n1-c1ccc(N2CCCC2)c([N+](=O)[O-])c1,-13.3
2,CNC(=O)c1ccsc1NC(=O)c1ccc(Cl)s1,-0.512
3,NC(=O)C(c1ccccc1)c1ccc(C(=O)c2ccccc2)cc1 (stereo not shown),3.08
4,Cc1nc(CNC(=O)C2CCC(=O)N(Cc3cccc(F)c3)C2)sc1C (stereo not shown),5.68
5,COc1cc(NC(=O)Nc2ccc3c(c2)OCO3)cc(OC)c1OC,31.4
6,Nc1nc(Cl)cc(N2CCOCC2)n1,14.1
7,COc1ccccc1CNC(=O)CN(c1ccc(C)cc1)S(=O)(=O)c1c(C)noc1C,-13.9
8,COCCCn1c(=O)c2sccc2n(Cc2ccccc2C)c1=O,0.966
9,Cc1ccc(SCCC(=O)N2CCC(C)CC2)cc1,-0.73
10,CCN(CC)c1ccc(CNc2nc3ccccc3n2C(C)C)cc1,1.88
11,CCOCCn1c2ccccc2c2nc3ccccc3nc21,-7.31
12,Cc1nn(-c2cccc(Cl)c2)c2nc(-c3ccncc3)cc(C(=O)N3CCOCC3)c12,-62.3
13,CCc1ccc2oc(-c3ccc(NC(C)=O)cc3)nc2c1,10.7
14,COc1ccccc1C(=O)Nc1ccc(C(=O)N2CCCC2)cc1,-5.55
15,O=C(O)c1ccccc1-c1ccccc1C(=O)NCc1cccc(C(F)(F)F)c1,-0.514
16,C/C=C/C(=O)OCC(=O)Nc1cccc(Br)c1,25.9
17,COC(=O)Cc1c(O)ccn(CCc2ccc(S(N)(=O)=O)cc2)c1=O,10.3
18,CCOC(=O)C1(O)CSc2nc3sc(C(=O)O)c(C)c3c(=O)n21 (stereo not shown),12.6
19,Cl.Clc1ccc(Cn2c(CN3CCCC3)nc3ccccc32)cc1,-74.4
20,Cc1cccc(C)c1NC(=O)CN(C)C(=O)c1cccc(S(=O)(=O)N2CCN(c3ccccc3)CC2)c1,-14.3
21,CCCCn1c(O)c(/C=N/N2CCOCC2)c(=O)[nH]c1=S,1.15
22,O=C(NCCOc1ccccc1)C1CCC(=O)N(Cc2ccc(Cl)cc2)C1 (stereo not shown),-31.2
